{
  "source": "paper PMC12136788",
  "binders": {"B1": {"name": "102310474_102310594_3790_3pUTR_ENSG00000166135_ENST00000299163|human|control|control (ssRNA)", "RNA": "GGGAGUUCUACAGUCCGACGAUCACCAAGACCCUUAGUGCCAUCUAGAACUACAGCUUCAGUUCUAUAGAUGCAAAAGCAUGCCGGGAGGAGUUAUGGGUCCUAUUCAAGGACACAUAAGUAAUGCAAUUAGACACAGAACUCCAACAGAGGAUUGAGCAUCA"}, "B2": {"name": "chr5:33461064:33461065:+_ENSG00000113407_ENST00000502553|hu_hu|motif|central (ssRNA)", "RNA": "GGGAGUUCUACAGUCCGACGAUCGGUGAGUCCUGUGAGUGCUCCAGACAGCUCGUUCCUAUGAAGUACCCCAAAAUCAGCGGGCCGCAGAGGCAGUUCUCGCCAGGACCUUGGCCGAUGAUCAAACAUAAGGCAGUGUCCUGGCAACAGAGGAUUGAGCAUCA"}, "B3": {"name": "chr18:34480306:34480307:+_ENSMUSG00000005871_ENSMUST00000115781|mus_mus|FALSE|FALSE (ssRNA)", "RNA": "GGGAGUUCUACAGUCCGACGAUCCUUUUACUUCUAACAUUAAUUUCUUAAAACAUGAAUUAAAAGGCAAUUGUAUUCUAACUAAAACCUCAUCUCUUUCCACAAAACUACUUGAAGUGCCUUAUAAAAACUGACGUGCAGUAACAACAGAGGAUUGAGCAUCA"}, "B4": {"name": "chr5:176562935:176562936:+_ENSG00000165671_ENST00000439151|hu_hu|motif|central (ssRNA)", "RNA": "GGGAGUUCUACAGUCCGACGAUCGGUACUGGAAUCUGGAUCAUCCUGAAAAGAUAAAUUUAUUGAGUUUAAUUGCUCUUCGGUUGUAAUGUUUGUGUCUCCUAGUGAAAAGGGGGCUGGGAGAAGGGCUGCUUUUUCAUUGCUCAACAGAGGAUUGAGCAUCA"}, "B5": {"name": "chr4:6320793:6320794:+_ENSMUSG00000028249_ENSMUST00000103008|mus_hu|FALSE|FALSE (ssRNA)", "RNA": "GGGAGUUCUACAGUCCGACGAUCAGCAGGCAUGAUUGUAAUAGUAACUACAGUCCCAGAUGUUGACAGUAUGUCUGCAAUUUGAGAGUCCUUCAAUCCAAUGACAUUCUGUCCAUUGAUUUCACAGAUGUUAUGUUCCGUGAGCAACAGAGGAUUGAGCAUCA"}, "B6": {"name": "chr9:74905015:74905016:+_ENSMUSG00000007656_ENSMUST00000169492|mus_mus|FALSE|FALSE (ssRNA)", "RNA": "GGGAGUUCUACAGUCCGACGAUCUGUGUUUGGAUUAUGUGACUUGUCUUCCAACUCGUGGUCUUAAACUUCUGUCUUACAAGAUUCAAAAGGAAGAUACAGAAGAAAUCAAUACAACAGAGGUCCUGUUAAAUAAGAGUAACACAACAGAGGAUUGAGCAUCA"}, "B7": {"name": "chr9:14812383:14812384:-_ENSMUSG00000031934_ENSMUST00000164273|mus_mus|mus_mus_mus_hu_True|78_108 (ssRNA)", "RNA": "GGGAGUUCUACAGUCCGACGAUCAUAGCUCAAGUAGAUACACGCUAACAGUAUAAUCACAAAUGUCAGCAGGCGGCAGCUAAUGUACUUGAUGAUUAAAUUAUUAGAAUUUUUCUUUGUCUUCAAGUACUGCUCCACAAUUGGCAACAGAGGAUUGAGCAUCA"}, "B8": {"name": "19955215_19955335_1846_CDS_ENSG00000166833_ENST00000396085|human|control|control (ssRNA)", "RNA": "GGGAGUUCUACAGUCCGACGAUCGUCCAGCCUCUCCGUCACAGAGGCUCUCUUGGCAAGGUCCUUGCUUUUCUCCUUAUCCUUCUCCCGCUGUUGUUUCUCCUUCUCUUUCUCAUUGCCUUUCAGAGAACUCUUCUUGUUGGUCAACAGAGGAUUGAGCAUCA"}, "B9": {"name": "chr12:39763582:39763583:-_ENSG00000139116_ENST00000544797|hu_mus|hu_hu_hu_mus_False|8_48 (ssRNA)", "RNA": "GGGAGUUCUACAGUCCGACGAUCCUCUAGGAACUGGGCAUUCACUUUGAAUUCAGGAGGGGGCAGCCCGUUUUUAAUCGCUGAGGUUUUUUUUUCUUCAAUACUCUUGAACAGGUGUCUAACAGCACGAGAAAUAAUGCCCUGCAACAGAGGAUUGAGCAUCA"}, "B10": {"name": "148364729_148364849_12330_CDS_ENSMUSG00000025261_ENSMUST00000112622|mouse|control|control (ssRNA)", "RNA": "GGGAGUUCUACAGUCCGACGAUCGUAGCACUCCAGGAGGCGGUUGUCAUAUACAGCUUUGGCUACAAUUCGUCCAACAAACUUGAAGUAGCUGAGGUGGUUGGGGUUACAGUGGGAAGAUGGAUUGAUGGUGUAGGUGACCCGCAACAGAGGAUUGAGCAUCA"}, "B11": {"name": "chr15:64983782:64983783:-_ENSG00000180304_ENST00000326005|perfect_dup|FALSE|FALSE (ssRNA)", "RNA": "GGGAGUUCUACAGUCCGACGAUCCCUGGAACAAUGUGCCUGCAGCACUGGAGCUGGGGACAGUUACUCAAAGGCAAAAUACUACUGUCCUGGGUGUUUAUCAUCCUCGGCGGCUCUGCUCAGGGUGGGAGGAGGCGGCGCAGGCAACAGAGGAUUGAGCAUCA"}, "B12": {"name": "46067222_46067342_971_CDS_ENSMUSG00000015880_ENSMUST00000117396|mouse|control|control (ssRNA)", "RNA": "GGGAGUUCUACAGUCCGACGAUCGAGAGGAGUCAUUGAGAAUAAGGAAUGGAGAACGGAGACUGCUACAUCAGAAGAAUUUUCCACAUCCAACCGAUGAAGAAACUCUAGAAUAUUCCCUUCAGUGAAACGCAACCAGCCUUGCAACAGAGGAUUGAGCAUCA"}, "B13": {"name": "chr12:3252685:3252686:-_ENSMUSG00000020671_ENSMUST00000021001|perfect_dup|FALSE|FALSE (ssRNA)", "RNA": "GGGAGUUCUACAGUCCGACGAUCUAACGUGAGGAACGCCUUUUCGAUGUUUAUAUUUGCUUUUGCACUAGUCUCAAAAAACCUAAUACCAUGCUCCCUUGCAAUCUGUUCUCCUUUUCCUUUAGGUACAACUCUUUUGUCGUCCAACAGAGGAUUGAGCAUCA"}, "B14": {"name": "chr1:163117052:163117053:-_ENSG00000143248_ENST00000313961|hu_mus|FALSE|FALSE (ssRNA)", "RNA": "GGGAGUUCUACAGUCCGACGAUCACACAGCCUGUGGUUUGCCUAUGUUUGUGUAUCUUGGAGCAAAGCUGCUAUGGAGAACUGUGCAGGUGCCUGGGAGGAUGCUGUGUUGCUACAAAGGAUGUAACUCAACUCACAGGGCAACAACAGAGGAUUGAGCAUCA"}, "B15": {"name": "chr18:45374997:45374998:-_ENSG00000175387_ENST00000586040|hu_mus|FALSE|FALSE (ssRNA)", "RNA": "GGGAGUUCUACAGUCCGACGAUCCGAGGGCUGUGACGCAUGGAAGGUCUCUCCAACCCUCUGGUUUAGUUCAUAGUAUGCGAUUGAACACCAGAAUGCAGGUUCCGAGUAAGUAACUGGCUGCAAAUCCAAGCUGUGAUUAACCAACAGAGGAUUGAGCAUCA"}, "B16": {"name": "chr7:149068622:149068623:-_ENSMUSG00000025139_ENSMUST00000001950|mus_hu|mus_mus_mus_hu_False|28_98 (ssRNA)", "RNA": "GGGAGUUCUACAGUCCGACGAUCGUGAGGCCUCUGAGUGAGGUUCCUGGUCUGUCCUGGGUUAGAGUUGUUAAUAUCACGGAACAUACCAUCUAGAACGUUCCAGUCUGCCUGACUACCUUCAUUCCCAAUGGAGAAGAAAUCCAACAGAGGAUUGAGCAUCA"}, "B17": {"name": "chr20:17587764:17587765:+_ENSG00000125868_ENST00000474024|hu_mus|motif|central (ssRNA)", "RNA": "GGGAGUUCUACAGUCCGACGAUCGCACUGACUGGCGGUCUACACAGGGGAUCCUUCAAAGGCUACAAUUAAGGAGCCACCGGGCUUUUCAGCAAUACAGGUCCGAUUGAGGUCUUCUGGCCCAUUUGCUUGAUACUCAUGCUUCAACAGAGGAUUGAGCAUCA"}, "B18": {"name": "chr7:157177620:157177621:+_ENSG00000105993_ENST00000429029|hu_hu|motif|central (ssRNA)", "RNA": "GGGAGUUCUACAGUCCGACGAUCGCCCAUGCCACUACCACCAAAUGACGUGGAAGAGAAUGAAGUGAGGCCCCCGUGACCGGGUGACCCAAAUGAAGUAAAUCCUGUAUCAAAAGAAGAAAAUCCACUUCCAAAAGACGGAAACAACAGAGGAUUGAGCAUCA"}, "B19": {"name": "49896483_49898194_992_3pUTR_ENSMUSG00000055447_ENSMUST00000084838|mouse|control|control (ssRNA)", "RNA": "GGGAGUUCUACAGUCCGACGAUCCCAAACCUGAAAUCAAAAGGGGGCCGUGCACUGGCUCACAUGCCAUGAUGCAGAGACACAGCCCGACCAAAGCAAGGACGUAGCCCAGCACUUGAGUGAUCAAUAUGGCAAUGGUGAAAGCAACAGAGGAUUGAGCAUCA"}, "B20": {"name": "chr16:94664741:94664742:+_ENSMUSG00000040785_ENSMUST00000117648|mus_hu|mus_mus_mus_hu_False|88_98 (ssRNA)", "RNA": "GGGAGUUCUACAGUCCGACGAUCUGGUACUGAUCUUUGCAUUGGAUACUCAGAAGAAAGGCUGGCCAAGGGUGUAUAUAUGCUGGUGUACUGGGGCAAACCUGGUAACACGUUUAUGUAUGCUGGCGGUGUCUGGGUGAUAUCCAACAGAGGAUUGAGCAUCA"}, "B21": {"name": "chr16:29586362:29586363:+_ENSMUSG00000038084_ENSMUST00000160597|mus_hu|motif|central (ssRNA)", "RNA": "GGGAGUUCUACAGUCCGACGAUCGCCACCCCCAACAGCCGAUCCUAGUAUGAGAUAGCGAAGUUUUAAGAGUCUCGUAGCGGAUCUUGCUGGCCAAAAAUUCCUGCGAGGCUGGUAGCCAUAUUUAAUUGGAGAGAAUUUCAGCAACAGAGGAUUGAGCAUCA"}, "B22": {"name": "chr14:21319760:21319761:-_ENSMUSG00000021816_ENSMUST00000161445|mus_hu|motif|central (ssRNA)", "RNA": "GGGAGUUCUACAGUCCGACGAUCAGCCAGCAGCAAAUCACCCUGGUGGCUCUCUAAGCAACUUGAGUACUCACAAUAAACGGAAAUUUCUCAUAACAUCUAGGUAACCUAUACAUGUCGUACCUGUACAUCAUAGGUCUAUAUCAACAGAGGAUUGAGCAUCA"}},
  "note": "Some of the results follow.",
  "data": [
    {"target": "T1, UNK ZnF1-3 (human, UniProt Q9C0B0 31-174)", "T1 sequence": "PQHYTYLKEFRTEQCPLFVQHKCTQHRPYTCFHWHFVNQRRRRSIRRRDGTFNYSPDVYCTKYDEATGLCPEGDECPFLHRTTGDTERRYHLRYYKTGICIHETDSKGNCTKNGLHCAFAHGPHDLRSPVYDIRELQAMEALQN", "assay": "nsRBNS (natural sequence RNA bind-n-seq); RBNS binding buffer (assumed for nsRBNS): 25 mM Tris pH 7.5, 150 mM KCl, 3 mM MgCl2, 0.01% Triton X-100, 500 ug/ml BSA, 20 U/ml SUPERase-In, 4 C; UNK is unkempt and MSI1 is Musashi-1; names of the RNAs are library labels; protein concentration not given here; high values mean tight binding", "units": {"binding signal": "enrichment R"}, "values": [
      {"binder": "B1", "binding signal": 0.923},
      {"binder": "B2", "binding signal": 0.791},
      {"binder": "B3", "binding signal": 0.824},
      {"binder": "B4", "binding signal": 1.23},
      {"binder": "B5", "binding signal": 0.992},
      {"binder": "B6", "binding signal": 1.4},
      {"binder": "B7", "binding signal": 0.974},
      {"binder": "B8", "binding signal": 0.391},
      {"binder": "B9", "binding signal": 1.53},
      {"binder": "B10", "binding signal": 1.46},
      {"binder": "B11", "binding signal": 1.19},
      {"binder": "B12", "binding signal": 1.99},
      {"binder": "B13", "binding signal": 0.481},
      {"binder": "B14", "binding signal": 1.71},
      {"binder": "B15", "binding signal": 0.996},
      {"binder": "B16", "binding signal": 0.689},
      {"binder": "B17", "binding signal": 1.06},
      {"binder": "B18", "binding signal": 1.21},
      {"binder": "B19", "binding signal": 1.44},
      {"binder": "B20", "binding signal": 1.14},
      {"binder": "B21", "binding signal": 1.53},
      {"binder": "B22", "binding signal": 0.771}
    ]}
  ]
}
